Experimental data as given in the supplement of paper PMC12632987.
In all, about 4,500 sequences were measured (“median log2 fold change of GCK-ALFA target abundance (FLAG IP / Myc IP barcode read proportion)”: median about 0.078, lowest 2% from about -0.6 on). This is one part of the list.

B1: GBRAP_128_3208 (protein)
chain: VSPEAVARLRALADRVAAERTPAAIREFAAALAEALRAGEIDLDTLAEIVEYLGRRLSEEDILLAEAALREALADVGADALAVALGELGEVLYEKEEEEE
B2: GBRAP_160_4014 (protein)
chain: SEKIEKLKKEIREEFEELKEWIEGLTPEERITLARGTAGLILQLVESSEEVSEETEEEIAKILDDFVAQVEANKDAPLEVWRALIDDTLKKILELLDKEE
B3: GBRAP_11_2683 (protein)
chain: KKEILKEAAKLAKELAKVIEKLLEEGTDNEELLKEAEKLLEKLEKLAKEYADEGSKKLVEIAKELWEKAKKDPKNAEKYLKELLAVARVLEGQYLLEIEE
B4: GBRAP_11_2681 (protein)
chain: RKEALEEAAELAREAARLLQELLEEGVDNEELLARARETLRRLRELVEAHLDEAHRRDVEVLEEALREAEADPENAAQYVREALAAARVLHYNLEDEIDE
B5: GBRAP_166_4974 (protein)
chain: EREKLVEELKKYFEELAEKMKTANYEEKLELLAEAAEKLREAKEKGLSKEDLRELIRYLIELAREVGIPLTDVEGALTILAELDEEEIDILLEAIEEVEA
B6: GBRAP_9_7106 (protein)
chain: KEEFAKKVKEIIEEAREEIKKVVPEELKPLVDKLTEELLKEIDKLAADPNATVEEIAKAAKEGLKAMAEELSKKLSPEIAAAVEAIVLTAIEEIDELAEE
B7: GBRAP_160_4638 (protein)
chain: SPAVEEMIEIIDEYTEMALEAVDEGDIDGALATLRMMVGDLVLEAEEAPEFSDEDVDELDKLGREHVARFEAARDASKEELRALIKEGAEELKKKVKEFG
B8: GBRAP_128_3534 (protein)
chain: SIEEVKKYAEEVVEEIKNSDVEKAKEITKKFIEKLKTWTDEEVEAAVEVLEEKLKELSAEKLDAVADAIRENIGKLTPEKQRLLSGLEVEALNLAEELEE
B9: GBRAP_78_6579 (protein)
chain: KIEEEIDKAIEYLGKAAKLAKEFPEEVSNELLDLIVEAESYLLESEEEGFSLENLEKALKYVEEAIKLVEELDDEKAKKLKEELEKAKKHLEKAIKLKKE
B10: GBRAP_11_2817 (protein)
chain: IDPKVKKAIELARKLAELLEEYIESKSDDEELYKEILELAEELLKLVKELNDPGFISDAEVLLELVKEMVEDKENREEYAKNALAAARTLLANIEEEAEE
B11: GBRAP_11_2917 (protein)
chain: KKEKLEEIAKLLEKAAELLKKLLKEGVDNEKLREEALKTLEEALKLIKENLDESSVELAKYAVELLEKSKEDPENAEEYVKEALAVVEVLLGLVLLEIEE
B12: GBRAP_160_4857 (protein)
chain: SEKLEKALKIIDEAREEALDAVEEAPASQRAAIAEAIALDAIYELEEEGLITEELEKALLAIVDALRAALEANADASVAEHKALVDAAFDAMKETVKEMS
B13: GBRAP_184_5217 (protein)
chain: ELVNRAVEATTAEEAIAKSDAVVAEAQAAGKKLNLNVFLKDMSLEEIEKVMKHLSELKKAGKIADATVVVEDPVSEEELDKLVKLADKYGIRLVVALKDE
B14: GBRAP_150_3901 (protein)
chain: DLEELLTLVSTAIDLLEAILDGEYSLLPHAIKVLKAALEESKEISEEVKELAEKALEEAEKAKKLLEEGGEQKEIDEAVKKALELAEKLEKLIEELIKKK
B15: GBRAP_128_3343 (protein)
chain: VDEEKLEEIEEIAKAMIEADDETAKKLAKELMEKLVELSLEEVEKAAEIIKELLPELSAEHLEILADELREYRPKFSPEKALIVNELEVEALNEAVEKEE
B16: GBRAP_137_3626 (protein)
chain: ATVHITVEHYEDVVRITVRLEDAELAEAVAELVLDVAHEHGALAVSIELEEDGSLVAEIWVPRDRAQALLDALVRALTEELGLTVVVTDADTGETRTYRP
B17: GBRAP_11_2791 (protein)
chain: KKELLKKLAELLEKAAELLEQLLASSPDDKELWKKTKELLEKAKKLAKEAGDETTAELLEYAKEDLEKAQADPENRQEYLQRALALVRTAKGLVLLDIEE
B18: GBRAP_128_3494 (protein)
chain: STEAAVARTRALMAAIGEADEETAAALTREWVELLAAADPETREAMVAVAEERLPELDAEKLEVIADTLREAQPSLDPETANLVAGLQVEALNAAVEKEE
B19: GBRAP_26_5448 (protein)
chain: IEEKLKELLEALKALADELADPELAALLKTEFDNIIALAELELEEAEGDKEKQLKVVEDMKKDILEAAKDLGVPADTLAKIEKVLEEQTKKIKEEIKKLE
B20: GBRAP_78_6709 (protein)
chain: EVEELLEKAIEHLNEAAKLLVKVGTELANEALGHLVDAMTYLWEAIEEGADLELLEKAKEELEKAIELAKKLDVPEKEEILKHLEEALKLVKEAIKLVKK
B21: GBRAP_128_3354 (protein)
chain: LDEAFLARVRATVEEMLTADVETVYELTKALVAEISKASDEEKDAAFAILEEALPKFDAEKLEAIADAIEEQLPTLDEYTANLAAGVLVEALNLAEEKEE
B22: GBRAP_160_4514 (protein)
chain: SETLKRILELIEEARKRIIEVLDEGDVEAAIVTADVEFGEVIMELAEDESASDEAVDAAAKIRDELVARLRAARDASVEERKAIVEEAAKKLKEELKKLF
B23: GBRAP_52_6023 (protein)
chain: MRERLRAAVRELLALVKAGREEEARRAARELVESLDEEELELLVEALAELAAEAPPEDADAVWRLAEIVAEALEEAGRDEVLADDLEARVAAALYAALQR
B24: GBRAP_160_4004 (protein)
chain: SEKIEKLIKEIEELVEETIEWMEGLSPEERLTLVRGTVGEIIQLAIESEEVSDESEEKIAELGDETIERVEENKDASLEVWKEILEEFLEKVKKILKEDE
B25: GBRAP_160_4659 (protein)
chain: SPEIEKLKEEIKEIFDEAIEMVKGQTHEERVAVARVAVGDIILEMEESEEVSEEAVDEVDEIGRELVATLEANPDFTDEEVEALIKEALEKVLKVLEKHS
B26: GBRAP_128_3551 (protein)
chain: SVEAAVARVRELLERMKTASPEEARELAEELAAHLASLSPEARAAAVAEILERLPELSVEHLEILADVFREQRPKLDPETAEAAAEIEVEALNIAEEKEE
B27: GBRAP_150_3892 (protein)
chain: NKELALLLAEELLDLLELTLELGVDLLPQALKVAEHLLEEAKELTEELKEKAEKILKLVKEAAKLAKKGGKEEEIKKKLEEAKKLAEELIKELKKLIEEE
B28: GBRAP_128_3409 (protein)
chain: STEEKVKKAKELLEKMLTADEEEQKKLAEELAELLLESDLETVKKIVEVILEMLPKFTAEQLDILADVLREKLDKFTPEKQELVSEVIVEALNEAEELEE
B29: GBRAP_184_5225 (protein)
chain: TVVREAVEAETAEELIAKAEAVVAAAQAAGKELVLYAFGRGLSLEEVERVAAHLAALKAAGRVKDATLVVEDERTEEEVDELVAIADRHGVRLVVALRDE

target: GABARAP, O95166; assay: median log2 fold change of GCK-ALFA target abundance (FLAG IP / Myc IP barcode read proportion) (log2 ratio); each designed protein is fused to an ALFA-tag nanobody in HEK293 cells to bring the named protein to FLAG-tagged glucokinase (GCK); Myc marks an untargeted standard; higher = target protein stabilised (more abundant); conditions: target protein: 3xFLAG-MCP-GCK-ALFA reporter; HEK293 landing pad (RPLP)
Method in brief: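 Binders fused to an ALFA nanobody were recombined as a library into HEK293 landing-pad cells, which were induced with 2 μg mL^−1 doxycycline and then transfected to express a FLAG-tagged target and a Myc-tagged standard. After 48 h, circular RNA barcodes recovered by anti-FLAG and anti-Myc immunoprecipitation of lysates were reverse transcribed, amplified and sequenced. Each binder's target abundance is the median log2 ratio of FLAG to Myc barcode read proportions, from barcodes present at ≥10^−7 in both replicates, binders carrying ≥3 barcodes per replicate, a 10^−6 pseudocount and pooled replicates.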

GABARAP, O95166, sequence (O95166 whole entry, the tested form may be a part): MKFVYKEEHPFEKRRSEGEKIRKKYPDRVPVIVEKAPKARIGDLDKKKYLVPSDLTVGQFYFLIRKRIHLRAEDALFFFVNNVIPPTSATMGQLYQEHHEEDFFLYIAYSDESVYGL

Binder	median log2 fold change
B1	0.166
B2	0.174
B3	0.0492
B4	0.267
B5	0.0911
B6	0.365
B7	-0.113
B8	0.237
B9	0.208
B10	0.215
B11	0.218
B12	-0.323
B13	-0.073
B14	0.384
B15	0.185
B16	-0.178
B17	0.0469
B18	0.441
B19	-0.104
B20	0.0714
B21	0.0761
B22	0.229
B23	-0.0573
B24	-0.827
B25	0.112
B26	0.304
B27	-0.0674
B28	0.298
B29	-0.0185
